According to PubChem BioAssay AID2546 (National Center for Advancing Translational Sciences (NCATS), 2010):
Hit rate of the full screen: of about 310,000 compounds, about 11,000 (3.5%) were called active. The shares of active, inactive and inconclusive entries below differ from those in the screen. Calls come from the whole dose curve; as a rule, active = well fitted inhibition curve with a large enough effect; inconclusive = small, poorly fitted or top-dose-only effect, or effect the other way; inactive = flat fitted curve, though single readings scatter. No potency is given beside an inconclusive call; the fits are too rough.

Test: VP16 counterscreen qHTS for inhibitors of ROR gamma transcriptional activity;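 note: Gal4-VP16 expression switched on by copper sulfate through the metallothionein promoter; nearly all actives have a fitted effect of over 50% in size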
Settings: Drosophila S2 Gal4-VP16 UAS-luciferase, luminescence, 20 h; activity, negative = inhibition: at 53.6 µM (top of the series)
% is set by controls: 0 for no effect and ±100 for the full control effect; potency is the fitted concentration of half-maximal effect; tags give direction and shape of the fitted curve.

**Q.** With `O=C(N/N=C/C=C/c1ccccc1)c1ccccc1Br` as the molecule, how does the Potency read?
**A.** inconclusive [inhibitor, single point]

**Q.** Which Potency does the source give for `COc1ccccc1-c1ccc(SCc2cccc(C)c2)nn1` here?
**A.** inconclusive [inhibitor, single point]

**Q.** Which Potency does the source give for `O=[N+]([O-])c1c(NCCCO)cc(SCc2ccco2)c2nonc12` here?
**A.** inconclusive [inhibitor, single point]

**Q.** With `COc1ccc(Cl)cc1NC(=O)COC(=O)C(CC(C)C)N1C(=O)C2CC=CCC2C1=O` (stereo not given) as the molecule, how does the Potency read?
**A.** inconclusive [inhibitor, single point]

**Q.** For `Cc1c(C(=O)C(=O)N2c3ccc(F)cc3CCC2C)c2ccccc2n1C` (stereo not given), which “activity, negative = inhibition” value is on record?
**A.** inactive: -2.32%

**Q.** For `CCCN1CN(Cc2ccccc2)CNC1=S`, which Potency is on record?
**A.** active: 7.08 µM

**Q.** For `Cc1cccc2nc(CSc3nc4cc([N+](=O)[O-])ccc4s3)cn12`, which Potency is on record?
**A.** inconclusive [activator, single point]

**Q.** With `O=C(NCc1cccnc1)C1CCC(c2ccc(Cl)cc2)CC1` (stereo not given) as the molecule, how does the Potency read?
**A.** inconclusive [inhibitor, single point]

**Q.** With `COc1ccccc1NC(=S)NCC1CCCCC1` as the molecule, how does the Potency read?
**A.** active: 12.6 µM

**Q.** For `O=C1NN(c2ccc(F)cc2)C(=O)/C1=C\C=C\c1ccco1`, which Potency is on record?
**A.** inconclusive [inhibitor, partial curve, poor fit]

**Q.** For `N#CC(c1nc2ccccc2nc1N1CCCC1)S(=O)(=O)c1cccs1` (stereo not given), which “activity, negative = inhibition” value is on record?
**A.** inactive: -7.98%

**Q.** For `O=C(Nc1ccc(OCC(=O)N2CCOCC2)cc1)c1ccccc1Cl`, which Potency is on record?
**A.** active: 7.94 µM

**Q.** With `CCN1CCN(Cc2ccc(NC(=O)c3ccc(C)c(NC(=O)c4cc(-c5ccc(Br)cc5)n[nH]4)c3)cc2C(F)(F)F)CC1` as the molecule, how does the Potency read?
**A.** inconclusive [inhibitor, single point]

**Q.** Which Potency does the source give for `COc1ccc(C)cc1Nc1n[n+](-c2ccccc2)c(-c2ccc(N(C)C)cc2)s1` here?
**A.** active: 5.62 µM

**Q.** Which Potency does the source give for `CC(C)c1ccc(OCc2ccc(C(=O)N(C)C)o2)cc1` here?
**A.** inconclusive [inhibitor, partial curve, poor fit]

**Q.** With `COc1cccc(C(=O)NC2CCN(C(=O)N3c4ccccc4Sc4ccccc43)CC2)c1` as the molecule, how does the Potency read?
**A.** inconclusive [inhibitor, full curve]

**Q.** For `Cc1cc(NC(=O)C2CC(=O)N(c3ccccc3Cl)C2)no1` (stereo not given), which “activity, negative = inhibition” value is on record?
**A.** inactive: 0.907%

**Q.** With `CCc1ccc2[nH]c(=O)c(C(c3nnnn3CCOC)N3CCN(c4ccccc4F)CC3)cc2c1` (stereo not given) as the molecule, how does the “activity, negative = inhibition” value read?
**A.** inactive: -2.6%

**Q.** Which Potency does the source give for `COc1ccc(C2CC(=O)N(C)c3ccccc3S2)cc1OC` (stereo not given) here?
**A.** inconclusive [activator, partial curve]

**Q.** Which “activity, negative = inhibition” value does the source give for `Cc1ccccc1-c1nn(-c2ccc(F)cc2F)cc1CNCCCN(C)C` here?
**A.** inactive: -4.41%

**Q.** With `COc1ccc(/C=N/N2CCOCC2)cc1O` as the molecule, how does the “activity, negative = inhibition” value read?
**A.** inactive: 18.5%

**Q.** Which “activity, negative = inhibition” value does the source give for `CNC(=O)c1ccc(S(=O)(=O)c2ccc(Cl)cc2)c(NC(C)=O)c1` here?
**A.** inactive: 0.682%

**Q.** With `CCOC(=O)c1cc(-c2cccs2)nn1CCC#N` as the molecule, how does the “activity, negative = inhibition” value read?
**A.** inactive: -24.5%

**Q.** For `Oc1cccc(/C=N/Nc2cccc3cccnc23)c1`, which Potency is on record?
**A.** inconclusive [inhibitor, partial curve]

**Q.** With `O=C(NCc1ccc(Cl)cc1)c1ccccc1CCc1ccccc1` as the molecule, how does the “activity, negative = inhibition” value read?
**A.** inactive: 16.8%

**Q.** For `COc1ccccc1-n1c(SCC(=O)N2CCCC2)nnc1-c1ccccc1`, which “activity, negative = inhibition” value is on record?
**A.** inactive: -1.48%

**Q.** For `S=C1Nc2ccccc2Sc2ccc(Cl)cc21`, which Potency is on record?
**A.** active: 2.82 µM

**Q.** With `O=C(CCNC(=O)N1CC(=O)Nc2ccccc21)Nc1ccc(Br)cc1F` as the molecule, how does the “activity, negative = inhibition” value read?
**A.** inactive: 17%

**Q.** With `O=C(/C=C/c1ccccc1)Nc1scc(-c2ccccc2)c1C(=O)O` as the molecule, how does the Potency read?
**A.** inconclusive [inhibitor, partial curve]

**Q.** For `CCOc1ccc(CCNC(=O)C2(c3ccccc3)CC2)cc1OCC`, which “activity, negative = inhibition” value is on record?
**A.** inactive: -0.75%

**Q.** For `Cc1nn(C)cc1/C=N\NC(=O)c1ccc2c(c1)c(C)c(C)n2Cc1ccccc1`, which Potency is on record?
**A.** inconclusive [inhibitor, single point]

**Q.** Which Potency does the source give for `CCOC(=O)c1ccc(NC(=S)NN2CCOCC2)cc1` here?
**A.** inconclusive [inhibitor, single point]

**Q.** Which activity, negative = inhibition does the source give for `Cn1c(=O)c2c(nc(Cl)n2CC(=O)N2CCCCC2)n(C)c1=O` here?
**A.** inactive: -11.3% [at 10 µM]

**Q.** For `NC(N)=N/N=C/c1ccc(OCc2ccccc2)c(OCc2ccccc2)c1`, which Potency is on record?
**A.** inconclusive [inhibitor, single point]

**Q.** With `CCOc1ccccc1N(CC(=O)NC1CCCCC1)S(=O)(=O)c1ccc(C)cc1` as the molecule, how does the Potency read?
**A.** inconclusive [inhibitor, single point]

**Q.** With `Cc1ccc(S(=O)(=O)Nc2cc(C(C)C)c(O)cc2C)cc1` as the molecule, how does the Potency read?
**A.** inconclusive [inhibitor, single point]

**Q.** Which Potency does the source give for `Cc1scc(C(=O)N/N=C/c2ccc(OCC(C)C)cc2)c1C` here?
**A.** inconclusive [inhibitor, single point]

**Q.** With `c1ccc2c(CSc3ncnc4nc[nH]c34)cccc2c1` as the molecule, how does the Potency read?
**A.** inconclusive [inhibitor, single point]

**Q.** With `CCNc1c(C(=O)O)ccc2c1C(=O)c1ccccc1C2=O` as the molecule, how does the Potency read?
**A.** active: 12.6 µM

**Q.** For `Cc1ccc2nc(NC(=O)c3ccccc3F)sc2c1`, which Potency is on record?
**A.** active: 7.08 µM

**Q.** With `Cc1nc(CCNC(=O)COc2ccccc2)cs1` as the molecule, how does the Potency read?
**A.** inconclusive [activator, partial curve]

**Q.** Which Potency does the source give for `COc1ccc(-c2nc(=S)c3ccc4ccccc4c3[nH]2)cc1` here?
**A.** inconclusive [inhibitor, single point]

**Q.** With `COc1ccc(/C=C2\CCn3c2nc2ccccc2c3=O)cc1OC` as the molecule, how does the Potency read?
**A.** inconclusive [activator, full curve, poor fit]

**Q.** With `Cc1ccc(NC(=S)NNC(=O)c2nn(C)c(C)c2Cl)cc1` as the molecule, how does the “activity, negative = inhibition” value read?
**A.** inactive: -2.67%

**Q.** For `N#Cc1cccc(N=Cc2c(O)ccc3ccccc23)c1`, which Potency is on record?
**A.** inconclusive [inhibitor, single point]

**Q.** With `CCOC(=O)c1[nH]c(COC(=O)CCOc2ccccc2OC)c(C(=O)OCC)c1C` as the molecule, how does the Potency read?
**A.** inconclusive [inhibitor, partial curve, poor fit]

**Q.** For `FC(F)(F)c1cccc(Sc2nc(-c3ccccc3)nnc2C(F)(F)F)c1`, which Potency is on record?
**A.** inconclusive [inhibitor, single point]

**Q.** With `CC1=C(C)CS(=O)N(S(=O)(=O)c2ccccc2)C1` (stereo not given) as the molecule, how does the Potency read?
**A.** active: 11.2 µM

**Q.** Which Potency does the source give for `CC(C)c1ccc(N2C(=NC(=O)C3CC3)SC3CS(=O)(=O)CC32)cc1` (stereo not given) here?
**A.** inconclusive [inhibitor, single point]

**Q.** Which Potency does the source give for `CCCCn1nc(C(=O)Nc2nc3c(s2)CCCC3)c2ccccc2c1=O` here?
**A.** inconclusive [inhibitor, single point]

**Q.** With `Cc1cccc(N(C(=O)c2snc(C(N)=O)c2N)C(C)C(=O)NCC2CCCO2)c1` (stereo not given) as the molecule, how does the “activity, negative = inhibition” value read?
**A.** inactive: -4.12%

**Q.** Which “activity, negative = inhibition” value does the source give for `CCS(=O)(=O)NCC(c1ccco1)N1CCN(c2ccccc2F)CC1` (stereo not given) here?
**A.** inactive: -0.784%

**Q.** With `C=CCSc1cc(C)nc2c(-c3ccc(Cl)cc3)c(C)nn12` as the molecule, how does the Potency read?
**A.** inconclusive [inhibitor, partial curve]

**Q.** For `S=C(N/N=C/c1ccccc1Cl)Nc1cccc(Cl)c1Cl`, which Potency is on record?
**A.** active: 11.2 µM

**Q.** Which “activity, negative = inhibition” value does the source give for `CSc1ccccc1C(=O)C1CCCN(S(=O)(=O)c2c(C)noc2C)C1` (stereo not given) here?
**A.** inactive: -4.97%

**Q.** Which Potency does the source give for `CCN1CCN(CCCNC(=O)c2ccc(/C=C3/Sc4ccccc4N(Cc4ccccc4F)C3=O)cc2)CC1` here?
**A.** inconclusive [inhibitor, single point]

**Q.** For `C1=C(CCNc2ncnc3nc[nH]c23)CCCC1`, which Potency is on record?
**A.** inconclusive [inhibitor, single point]

**Q.** Which “activity, negative = inhibition” value does the source give for `Cc1cc(C(=O)Nn2c(C3CCCCC3)nc3ccccc3c2=O)ccc1[N+](=O)[O-]` here?
**A.** inactive: -16.4%

**Q.** Which “activity, negative = inhibition” value does the source give for `COc1ccc2c(c1)C(=O)[C@H](OC(=O)NCCc1ccc(OC)c(OC)c1)[C@@H](c1ccc(OC)c(Br)c1)O2` here?
**A.** inactive: -2.36%

**Q.** For `CCOc1cc(Br)cc(/C=N/NC(=O)c2cccnc2)c1O`, which Potency is on record?
**A.** active: 1 µM

**Q.** For `CCOC(=O)CNC(=O)c1sc2ncnc(N3CCc4ccccc4C3)c2c1C`, which Potency is on record?
**A.** inconclusive [inhibitor, single point]

**Q.** With `CC(=O)Nc1ccc(N(CC(O)Cn2c3ccccc3c3ccccc32)S(=O)(=O)c2ccc(C)cc2)cc1` (stereo not given) as the molecule, how does the Potency read?
**A.** inconclusive [inhibitor, partial curve]

**Q.** With `COc1cc2c(cc1OC)CN(c1nc(CN3CCCCC3)nc3sc4c(c13)CCCC4)CC2` as the molecule, how does the Potency read?
**A.** inconclusive [inhibitor, single point]

**Q.** For `CC1CCN(C(=O)c2[nH]cnc2C(=O)NCC(=O)OC(C)(C)C)CC1`, which “activity, negative = inhibition” value is on record?
**A.** inactive: -5.51%

**Q.** Which Potency does the source give for `CCCCCCC(=O)NNC(=O)c1c(O)c2ccccc2n(CC)c1=O` here?
**A.** inconclusive [inhibitor, single point]

**Q.** With `CN(C)c1ccc(C2C=C(c3ccc(Cl)cc3OC(F)F)Nc3ncnn32)cc1` (stereo not given) as the molecule, how does the “activity, negative = inhibition” value read?
**A.** inactive: -1.7%

**Q.** With `Cc1cccc(NC(=O)c2ccc(NCCO)c([N+](=O)[O-])c2)n1` as the molecule, how does the Potency read?
**A.** inconclusive [inhibitor, partial curve]

**Q.** For `C(=N\Nc1nc2ccccc2[nH]1)/c1ccncc1`, which Potency is on record?
**A.** inconclusive [activator, single point]

**Q.** For `CCOc1cccc(-c2c(C(=O)N/N=C/c3sccc3C)nnn2-c2nonc2N)c1`, which Potency is on record?
**A.** active: 4.47 µM

**Q.** With `Cc1cc(C)nc(-n2nc(C)cc2NC(=O)CNC2CCCCC2)n1` as the molecule, how does the Potency read?
**A.** active: 6.31 µM

**Q.** Which “activity, negative = inhibition” value does the source give for `CCN(CCNC(=O)C1CCN(S(=O)(=O)c2c(C)noc2C)CC1)c1ccccc1` here?
**A.** inactive: -0.953%

**Q.** With `COC(=O)c1ccc(SCC(=O)N2CCC(C)CC2)c([N+](=O)[O-])c1` as the molecule, how does the “activity, negative = inhibition” value read?
**A.** inactive: 16.8%

**Q.** With `Cc1ccccc1OCCCCc1c(C)n[nH]c1C` as the molecule, how does the Potency read?
**A.** active: 12.6 µM

**Q.** With `CCN(CC)C(=O)CN1C(=O)/C(=C/c2ccccc2)SC1=S` as the molecule, how does the Potency read?
**A.** inconclusive [activator, full curve]

**Q.** For `COc1cc(/C=C/c2cc(C(=O)O)c3ccccc3n2)cc(OC)c1O`, which Potency is on record?
**A.** inconclusive [inhibitor, single point]
